# Test results: PMC12136788
# The list shows a part of the results.
# B1: chr8:23844609:23844711:-|3pUTR|ENSG00000159167|msi1|total|mutant (ssRNA)
# RNA: GGGAGUUCUACAGUCCGACGAUCUUCCGGGGUGUUGACACACCAGUUUUGAGUGUACUGUGCCUGGUUUGAUUUUUUUAAAGCCGUUCCUAUUUUCUAUCCCCCUUAAAGAAAAUUGCAUGAAACCCGGCUUCUGUAAUCAAUCAACAGAGGAUUGAGCAUCA
# B2: ENSG00000159842:stop:overlap|stop_codon|ENSG00000159842|stop_codon|NA|stop_codon (ssRNA)
# RNA: GGGAGUUCUACAGUCCGACGAUCACCCCCCCAUUUCCUUCGCAGAACUCAAGCGGAACACACUGUACUUCUCCACCGACGUGUAGCCCGAGGCAGGGUGGCUGCGGGCGGGUGGUGGAACCAGCCCCUCCAGCCUGGGGUCCACAACAGAGGAUUGAGCAUCA
# B3: chr4:169989555:169989656:-|3pUTR|ENSG00000198948|unk|total|mutant (ssRNA)
# RNA: GGGAGUUCUACAGUCCGACGAUCUUGGACAACUCCCUUCCUCUCUCUGGGAUUUAAUCUUUUUCAUCUGUAAAAUAUGCAGGCCGUACUCGAGGGUCUACAGGAUCCCUUCCCGUUGAAACAUUUACCGUUCACAGAAAGUUUCAACAGAGGAUUGAGCAUCA
# B4: chr14:39032579:39032680:-|3pUTR|ENSG00000100934|msi1|FALSE|bound_elsewhere (ssRNA)
# RNA: GGGAGUUCUACAGUCCGACGAUCUGAUUUUAUAAUGGUAAUUUUCAUGAUGAUAAUGUUUUUGGUUAUUUGGAAAGAUAGUUUAGAGAUGAAAGGUUUUUUUGGGUAACAAUCCCGCAGCUGACAAAAAAUGUGAAAUUUCCACAACAGAGGAUUGAGCAUCA
# B5: ENSG00000070961:be:win_2801|CDS|ENSG00000070961|bound_else_gene|NA|bound_elsewhere_windowed (ssRNA)
# RNA: GGGAGUUCUACAGUCCGACGAUCGUCAUGCAUUCUAUCAACUUGUAGUAGUCUUUACACUCUUAUUUGCUGGAGAAAAGUUUUUUGACAUUGAUAGUGGAAGAAAUGCUCCUUUGCAUGCUCCUCCUUCAGAACAUUAUACUACAACAGAGGAUUGAGCAUCA
# B6: chr12:122133860:122133961:+|CDS|ENSG00000175727|msi1|total|mutant (ssRNA)
# RNA: GGGAGUUCUACAGUCCGACGAUCUUUUGUGCACCCCAAACCUGUAUCCUUGACUGGGGGCAGGCCUAAGCAGCCCCACAAAACCGUGCCUGCUCCCAAACCAGAGCCCGUGUCCUUGGUGUUGAAGAAUGCCCGUAUCGCCCCCAACAGAGGAUUGAGCAUCA
# B7: chr14:55043969:55044070:+|CDS|ENSG00000180008|unk|total|mutant (ssRNA)
# RNA: GGGAGUUCUACAGUCCGACGAUCUUUUUACUUCGAGACUCAGCACAGGAAGACUAUUUAUUCUCUGUCCGUUUCCGACGCUACCGUCGUUCUCUUCAUGCCCGAAUUGAACAGUGGAAUCACAACUUCCGCUUUGAUGCACAUCAACAGAGGAUUGAGCAUCA
# B8: ENSG00000124006:stop:overlap|stop_codon|ENSG00000124006|stop_codon|NA|stop_codon (ssRNA)
# RNA: GGGAGUUCUACAGUCCGACGAUCCGAAGACCCGGCGGCUCUGGUCCCGCUUCCCCCCAUGGCGACGAACAGCUGGCACUGAGUAGCAGCUGCCCCCAUAGUUUGGGGCCCACAUUCCUCUGUCCCACCUCCCUGCCAUUGCUUCAACAGAGGAUUGAGCAUCA
# B9: ENSG00000138660:stop:overlap|stop_codon|ENSG00000138660|stop_codon|NA|stop_codon (ssRNA)
# RNA: GGGAGUUCUACAGUCCGACGAUCCUGUAUUAGAACUGUCUGAUUCUGGCAUAAGGCAUUCUGACACAGAUCAACAGACUCGAUAGGGUAAAAUUGUGUGACCUUGUUUAUCAGUUAUGACCAAAUGUUAAAAACCAACUAGAACAACAGAGGAUUGAGCAUCA
# B10: chr8:93925380:93925481:+|3pUTR|ENSG00000164951|msi1|total|mutant (ssRNA)
# RNA: GGGAGUUCUACAGUCCGACGAUCAUUUAUUUCUAAAUGUUUUGACUGGGCAUUUUUCUUUUAAUGAAAUAUGUGGACUGCUCCCGCAAACCCUAUUUUCAGCUACUAUUUGAAUAUUCUUGAACACCACCACUGAAGAGUUUCCAACAGAGGAUUGAGCAUCA
# B11: chr8:11323570:11323671:+|3pUTR|ENSG00000104643|unk|total|mutant (ssRNA)
# RNA: GGGAGUUCUACAGUCCGACGAUCGAGCAUACAUAUACAAUGUGUUUCAAAUGCUGCUUGUAAAAUUAAACCAUCAUCCCGAACCGAGUUAAUUUAUUAUAAUCAAGCUACAAACCGGUUUUCUUAAACCAGAGAUGCACUGCCCAACAGAGGAUUGAGCAUCA
# B12: chr20:18487131:18487232:-|3pUTR|ENSG00000089050|msi1|FALSE|unique (ssRNA)
# RNA: GGGAGUUCUACAGUCCGACGAUCAAAUAUAGUAACCAGUAACCACAGCUAGCUGUAAAAUUGAAAAUUCAGUUCAGUCAAACUAGCCAUAUUUCAAGUGCUCAACAGCCACUGGUGGCUAUUGGUUACCUUACUGACCAGCCACAACAGAGGAUUGAGCAUCA
# B13: chr3:125228010:125228111:-|3pUTR|ENSG00000163848|msi1|total|mutant (ssRNA)
# RNA: GGGAGUUCUACAGUCCGACGAUCAGUUCUCUUCAUAUUUCAUAACUACAUUUCAAUAAUUCUAAACUUUCUACAUUGAUUUUCCGAUACUUAUUUUUCAAGCUUGGUUUCUCAGCUGAUCAGAUGAAUUUAUUCAACUUCAAUCAACAGAGGAUUGAGCAUCA
# B14: chr17:31995613:31995700:+|CDS|ENSG00000178691|msi1_unk|total|mutant (ssRNA)
# RNA: GGGAGUUCUACAGUCCGACGAUCAGCAUGUCUGAAUUUCUUGAAUCUGAAGAUGGGGAAGCCGAACAGCAAAGAACAUACCGCCGUGGCCACAAUCGUCUGUAUUUCCACCGUGAUACCUGCUUACCUCUCCGUCCACAAGAACAACAGAGGAUUGAGCAUCA
# B15: chr6:122432834:122432935:+|3pUTR|ENSG00000025156|msi1|FALSE|unique (ssRNA)
# RNA: GGGAGUUCUACAGUCCGACGAUCAUAUAUAGAAAGAUCGGGGGUGGGAUGGGAUGGAGUGAGCCCCAUCCAGUUAGUUGGACUAGUUUUAAAUAAAGGUUUUCCGGUUUGUGUUUUUUUGAACCAUACUGUUUAGUAAAAUAACAACAGAGGAUUGAGCAUCA
# B16: chr1:37590682:37590793:-|CDS|ENSG00000134697|unk|total|mutant (ssRNA)
# RNA: GGGAGUUCUACAGUCCGACGAUCAAGCAAAGCAAGUUACCAAUGUCUCUUCUCCAUGAUCGAAUCCGGCCUCAUGUAAGAUGCCGGAUAUCCCUGGUGAUGGAAUUUCCUGGGCAAACUCCAUGCAGAUCCCUCUCUAACAUACAACAGAGGAUUGAGCAUCA
# B17: chr5:173232108:173232568:-|three_prime_utr|ENSG00000183072|control|control|control (ssRNA)
# RNA: GGGAGUUCUACAGUCCGACGAUCAAGGGGCUCCCAACAUGACCCUGAGUCCCCUGGAUUUUGCAUUCACUCCUGCGGAGACCUAGGAACUUUUUCUGUCCCACGCGCGUUUGUUCUUGCGCACGGGAGAGUUUGUGGCGGCGACAACAGAGGAUUGAGCAUCA
# B18: chrX:14865087:14865190:-|CDS|ENSG00000181544|unk|FALSE|unique (ssRNA)
# RNA: GGGAGUUCUACAGUCCGACGAUCAUAUUUUUUACUAAUCCUUCACAGUACUAAUAAAUUUGAAAUGCGUUUGAGUUUUAAACUAGGCUAUGAGAUGAAGGAUGGCCUAAGGGUCCUUAAUGGCCCUUUAAUUUUAUGGAGGCACAACAGAGGAUUGAGCAUCA
# B19: chr12:52514574:52514941:-|three_prime_utr|ENSG00000186081|control|control|control (ssRNA)
# RNA: GGGAGUUCUACAGUCCGACGAUCCCUGCUGCAAGUCACUGCCUUCCAAGUGCAGCAACCCAGCCCAUGGAGAUUGCCUCUUCUAGGCAGUUGCUCAAGCCAUGUUUUAUCCUUUUCUGGAGAGUAGUCUAGACCAAGCCAAUUCAACAGAGGAUUGAGCAUCA
# B20: ENSG00000107863:be:win_3201|CDS|ENSG00000107863|bound_else_gene|NA|bound_elsewhere_windowed (ssRNA)
# RNA: GGGAGUUCUACAGUCCGACGAUCAGCAGAACAGUUGCCAAAAACACCUCGCCAGAGUCUCAGCAUCAGGCAAACUUUGCUUGGUGCUAAAUCAGAGCCAAAGACUCAAAGCCCACACUCUCCGAAGGAAGAGUCGGAAAGGAACAACAGAGGAUUGAGCAUCA
# B21: chr3:187234081:187235683:-|three_prime_utr|ENSG00000127241|control|control|control (ssRNA)
# RNA: GGGAGUUCUACAGUCCGACGAUCACUUCCGACAGCACACUCCACAUUACUUAUCAGACCAUAUGGAAUGGAACACACUGACCUAGCGGUGGCUUCUCCUACCGAGACAGCCCCCAGGACCCUGAGAGGCAGAGUGUGGUAUAGCAACAGAGGAUUGAGCAUCA
# B22: chr2:32415736:32415837:+|CDS|ENSG00000115760|unk|total|mutant (ssRNA)
# RNA: GGGAGUUCUACAGUCCGACGAUCGCAGAGGAAUGUCCGUGGUGGAUAUUCCGUGCUUUAUAAAAUGAAUUAUGCCACUCGGACCGUGACUUCCGAAGAGGAGCCAAUAAAAAUACAACAUAUCAAAGAUCCCCAGGACACAAUCAACAGAGGAUUGAGCAUCA
# Biological target: MSI1 full-length (mouse, UniProt Q61474 1-362)
# UniProt Q61474, sequence (Q61474 whole entry): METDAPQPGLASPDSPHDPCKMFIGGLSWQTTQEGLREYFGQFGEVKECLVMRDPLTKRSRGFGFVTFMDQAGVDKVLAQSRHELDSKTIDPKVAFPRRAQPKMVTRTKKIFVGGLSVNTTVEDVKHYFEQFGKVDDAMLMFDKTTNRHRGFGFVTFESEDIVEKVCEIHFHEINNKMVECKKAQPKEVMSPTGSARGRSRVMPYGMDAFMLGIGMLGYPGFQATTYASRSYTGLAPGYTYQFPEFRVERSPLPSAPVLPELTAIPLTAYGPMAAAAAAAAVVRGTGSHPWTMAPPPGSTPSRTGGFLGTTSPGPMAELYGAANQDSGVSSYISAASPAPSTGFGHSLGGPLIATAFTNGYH
# Test: nsRBNS (natural sequence RNA bind-n-seq); RBNS binding buffer (assumed for nsRBNS): 25 mM Tris pH 7.5, 150 mM KCl, 3 mM MgCl2, 0.01% Triton X-100, 500 ug/ml BSA, 20 U/ml SUPERase-In, 4 C; UNK is unkempt and MSI1 is Musashi-1; names of the RNAs are library labels; protein concentration not given here; high values mean tight binding
row,Binder,binding signal
1,B1,0.284 enrichment R
2,B2,0.978 enrichment R
3,B3,0.547 enrichment R
4,B4,1.3 enrichment R
5,B5,0.822 enrichment R
6,B6,0.494 enrichment R
7,B7,0.229 enrichment R
8,B8,0.474 enrichment R
9,B9,0.452 enrichment R
10,B10,0.468 enrichment R
11,B11,0.435 enrichment R
12,B12,0.359 enrichment R
13,B13,18.6 enrichment R
14,B14,0.473 enrichment R
15,B15,5.26 enrichment R
16,B16,0.342 enrichment R
17,B17,0.423 enrichment R
18,B18,0.596 enrichment R
19,B19,1.06 enrichment R
20,B20,0.323 enrichment R
21,B21,0.56 enrichment R
22,B22,0.62 enrichment R
